From PubChem BioAssay AID360 (National Center for Advancing Translational Sciences (NCATS), 2006)
Out of some 48,000 compounds screened, about 550 (1.1%) were called active. Not shown: some 4% with an inconclusive outcome. No stated cut-off is given here; in the data, active means potency below about 15 µM; inconclusive means mostly about 16 µM to 33 µM; inactive means weaker than that. The list shows a part of the results.

target: Lysosomal acid glucosylceramidase (Homo sapiens) (UniProt P04062); experiment: Glucocerebrosidase; settings: purified enzyme, resorufin glucoside fluorescence (screen aimed at inhibitors), 20 min;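 further: the screen sought inhibitors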
Chain of UniProt P04062 (P04062 whole entry, looked up): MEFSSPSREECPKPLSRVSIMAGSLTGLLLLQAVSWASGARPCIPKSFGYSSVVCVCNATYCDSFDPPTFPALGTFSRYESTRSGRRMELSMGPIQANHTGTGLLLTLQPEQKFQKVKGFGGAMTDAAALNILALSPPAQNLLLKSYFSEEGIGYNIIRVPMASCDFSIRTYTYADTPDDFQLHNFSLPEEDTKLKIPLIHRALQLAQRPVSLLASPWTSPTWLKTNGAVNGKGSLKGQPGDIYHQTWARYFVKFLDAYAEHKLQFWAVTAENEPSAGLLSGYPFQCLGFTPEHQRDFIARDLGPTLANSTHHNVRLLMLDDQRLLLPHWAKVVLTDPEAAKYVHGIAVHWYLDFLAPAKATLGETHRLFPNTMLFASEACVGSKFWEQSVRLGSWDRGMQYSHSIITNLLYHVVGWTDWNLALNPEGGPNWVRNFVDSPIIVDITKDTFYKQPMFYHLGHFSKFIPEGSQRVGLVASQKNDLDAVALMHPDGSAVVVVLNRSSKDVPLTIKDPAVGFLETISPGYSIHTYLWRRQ
Method in brief: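 Normal human glucocerebrosidase (0.2 nM final) was assayed with resorufin β-D-glucopyranoside (30 uM final) in 50mM citric acid/KH2PO4, 10mM sodium taurocholate, 0.01% tween-20, pH 5.9. Compounds were titrated; fluorescence (Ex 548, Em 600) read after 20 min at RT.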
Potency means the concentration at half of the fitted maximal effect.

Potency, inactive:
CCOC(=O)CSc1nnc(CNC(=O)Cc2ccccc2)n1-c1ccccc1OC > 76.9 µM
CCc1nc(-c2ccc(-c3ccc(OC)cc3)nc2OC)no1 > 76.9 µM
Cn1nnnc1SCC(=O)N1CCN(c2cccc(Cl)c2)CC1 > 76.9 µM
Cc1ccc2c(CC(=O)N3CCN(S(=O)(=O)c4ccc5c(c4)OCCO5)CC3)coc2c1 > 76.9 µM
Cc1ccc(NC(=O)c2noc3c2CCCCC3)cc1 > 76.9 µM
CCc1cc2ccc(OC)cc2nc1SCC(=O)Nc1cc(C)on1 > 76.9 µM
COc1ccc(Cc2n[nH]c(=O)c3ccccc23)cc1OC > 76.9 µM
COc1cc(-c2nnc3sc(-c4cccnc4)nn23)cc(OC)c1OC > 76.9 µM
CCC(c1nnnn1C(C)C)N1CCN(C2CCCC2)CC1 (stereo not given) > 76.9 µM
Cc1ccc(S(=O)(=O)NC(CC(=O)O)c2ccccc2)cc1 (stereo not given) > 76.9 µM
CCN(CC)c1nc(C#N)cc(-c2ccc(OC)cc2)n1
CC(C)OC(=O)Cn1cnc2ccc(Br)cc2c1=O > 76.9 µM
CCOc1ccc(/C(O)=C2\C(=O)C(=O)N(CCN(C)C)C2c2cc(OC)ccc2OC)cc1Cl (stereo not given) > 76.9 µM
O=S(=O)(c1cc(C(F)(F)F)ccc1Cl)N1CCCCCC1 > 76.9 µM
CCOC(=O)C1C(c2ccc3c(c2)OCO3)NC(=O)NC1(O)C(F)(F)F (stereo not given) > 76.9 µM
CC(=O)c1cccc(NC(=O)CC2SC(N3CCCCC3)=NC2=O)c1 (stereo not given) > 76.9 µM
O=C(NCc1ccco1)C1CN(S(=O)(=O)c2ccccc2)CCN1S(=O)(=O)c1ccccc1 (stereo not given) > 76.9 µM
COc1ccc(CNC(=O)c2cccc(N(C)C)c2)cc1 > 76.9 µM
CCc1nc(N2CCCC2C(=O)O)c2oc3ccccc3c2n1 (stereo not given) > 76.9 µM
N#Cc1c(N)nc(SCC(=O)OCc2ccccc2)c(C#N)c1-c1ccco1 > 76.9 µM
O=C(CS(=O)(=O)Cc1ccccc1)Nc1ncccn1 > 76.9 µM
Nc1nnc(SCc2ccc(F)cc2)s1 > 76.9 µM
Cc1ccc(S(=O)(=O)N2CCN(C(=O)c3c(C)nn(-c4ccccc4)c3Cl)CC2)cc1 > 76.9 µM
COc1ccc(S(=O)(=O)Nc2ccc(S(=O)(=O)Nc3nc(C)cc(C)n3)cc2)cc1OC > 76.9 µM
Cn1c(CCNC(=O)C(C)(C)C)nc2ccccc21 > 76.9 µM
